# Source: the supplement of paper PMC12217912
# The list shows a part of the results. The full chains were built here from the parent and the listed change. Inactive controls read about 0.05.
# B1: TEV protease; numbered along this chain (parent)
# chain: MGESLFKGPRDYNPISSSICHLTNESDGHTTSLYGIGFGPFIITNKHLFRRNNGTLVVQSLHGVFKVKDTTTLQQHLVDGRDMIIIRMPKDFPPFPQKLKFREPQREERICLVTTNFQTKSMSSMVSDTSCTFPSGDGIFWKHWIQTKDGQCGSPLVSTRDGFIVGIHSASNFTNTNNYFTSVPKNFMELLTNQEAQQWVSGWRLNADSVLWGGHKVFMVKPEEPFQPVKEATQL
# Variants of: B1
# Test: raw area under fraction-flipped curve 0-4 h after induction (AUC4h, not background-subtracted), DNA-recorder readout of cleavage of the substrate (dimensionless); higher = more cleavage of the substrate by the protease variant
# Details: temperature: 34 °C; time window: 0-4 h after rhamnose induction
# Procedure: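 In vivo DNA recorder in E. coli TOP10(DE3) ΔrhaA at 34 °C. Each TEVp single-site mutant (parent TEVp 0) is paired with a single-site variant of the 7-mer TEVs (canonical ENLYFQ|S). The substrate sits between flexible linkers in a Bxb1-sfGFP-TEVs-SsrA fusion, so cleavage stabilises Bxb1 and speeds flipping of a recombination array, read by NGS. The value is the raw area under the fraction-flipped curve over 0-4 h after rhamnose induction (AUC4h), with ≥20 reads per time point. It is not background-subtracted; inactive controls average about 0.047.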
# 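Further: Bxb1 expression induced with 0.2% (w/v) L-rhamnose at OD600 near 0.5, cultures sampled hourly, flipped fraction per protease–substrate barcode pair counted by paired-end Illumina sequencing.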
Variant,area with substrate ENLYFES,area with substrate ENLYFFS,area with substrate ENLYFIS,area with substrate ENLYFMS,area with substrate ENLYFTS,area with substrate ENLYFWS,area with substrate ENLYFYS,area with substrate ENLYFDS,area with substrate ENLYFHS,area with substrate ENLYFKS
MGESLFKGPRDYNPISSSICHLTNESDGHTTSLYGIGFGPFIITNKHLFRRNNGTLVVQSLHGVFKVKFTTTLQQHLVDGRDMIIIRMPKDFPPFPQKLKFREPQREERICLVTTNFQTKSMSSMVSDTSCTFPSGDGIFWKHWIQTKDGQCGSPLVSTRDGFIVGIHSASNFTNTNNYFTSVPKNFMELLTNQEAQQWVSGWRLNADSVLWGGHKVFMVKPEEPFQPVKEATQL [D69F],0.0601,0.0848,0.0601,0.0682,0.0505,0.0542,0.059,–,–,–
MGESLFKGPRDYNPISSSICHLTNESDGHTTSLYGIGFGPFIITNKHLFRRNNGTLVVQSLHGVFKVKDTTTLQQHLVDGRDMIIIRMPKDFPPFPQKLKFREPQREERICLVTTNFQTKSMSSMVSDTSCTFPSGDGIFWKHWIQTKDGQCGSPLVSTRDGFIVGIHSASNFTNTNNYFTSVPKNFMELLTNQEAQQWVSGWRLNADSVLWGGHKVFMVKPEEPFQRVKEATQL [P228R],0.0888,0.055,0.0491,–,0.0629,0.0556,0.069,0.0556,0.0571,0.0548
MGESTFKGPRDYNPISSSICHLTNESDGHTTSLYGIGFGPFIITNKHLFRRNNGTLVVQSLHGVFKVKDTTTLQQHLVDGRDMIIIRMPKDFPPFPQKLKFREPQREERICLVTTNFQTKSMSSMVSDTSCTFPSGDGIFWKHWIQTKDGQCGSPLVSTRDGFIVGIHSASNFTNTNNYFTSVPKNFMELLTNQEAQQWVSGWRLNADSVLWGGHKVFMVKPEEPFQPVKEATQL [L5T],0.0503,–,–,0.0684,0.116,0.0528,–,–,0.0699,–
MGESLFKGPRDYNPISSSICHLTNESDGHTTSLYGIGFGPFIITNKHLFRRNNGTLVVQSLHGVFKVKDTTTLQQHLVDGRDMIIIRMPKDFPPFPQKLKFREPQREERICLVTTNFQTKSMSSMVSDTSCTFPSGDGIFWKHWIQTKDGQCGSPLVSTRDGFIVGIHSASNFTNTNNYFTSVPKNFMELLTNQEAQQWVSGWRLNADSVLSGGHKVFMVKPEEPFQPVKEATQL [W212S],–,–,0.0501,–,–,–,–,0.0674,–,0.0466
MGESLFKGPRDYNPISSSICHLTNESDGHTTSLYGIGFGPFIITNKHLFRRNNGTLVVQSLHGVFKVKDTTTLQQHLVDGRDMIIIRMPKDFPPFPQKLKFREPQREERICLVTTNFQTKSMSSMVSDTSCTFPSGDGIFWKHWIQTKDGQCGSPLVSTRDGFIVGIHSASNFTNTMNYFTSVPKNFMELLTNQEAQQWVSGWRLNADSVLWGGHKVFMVKPEEPFQPVKEATQL [N177M],–,–,0.0682,0.0475,–,0.072,0.0604,0.0652,–,0.0573
MGESLFKGPRDYNPISSSICHLTNESDGHTTSLYGIGFGPFIITNKHLFRRNNGTLVMQSLHGVFKVKDTTTLQQHLVDGRDMIIIRMPKDFPPFPQKLKFREPQREERICLVTTNFQTKSMSSMVSDTSCTFPSGDGIFWKHWIQTKDGQCGSPLVSTRDGFIVGIHSASNFTNTNNYFTSVPKNFMELLTNQEAQQWVSGWRLNADSVLWGGHKVFMVKPEEPFQPVKEATQL [V58M],0.0698,0.0762,–,–,0.0571,–,–,–,0.0353,–
MGESLAKGPRDYNPISSSICHLTNESDGHTTSLYGIGFGPFIITNKHLFRRNNGTLVVQSLHGVFKVKDTTTLQQHLVDGRDMIIIRMPKDFPPFPQKLKFREPQREERICLVTTNFQTKSMSSMVSDTSCTFPSGDGIFWKHWIQTKDGQCGSPLVSTRDGFIVGIHSASNFTNTNNYFTSVPKNFMELLTNQEAQQWVSGWRLNADSVLWGGHKVFMVKPEEPFQPVKEATQL [F6A],0.0645,–,0.0375,0.054,0.0832,0.0572,–,–,–,–
MGESLFKGPRDYNPISSSICHLTNESDGHTTSLYGIGFGPFIITNKHLFRRNNGTLVVQSLHGVFKVKDTTTLQQHLVDGRDMIIIRMPKDFPPFPQKLKFREPQREERICLVTTNFQTKSMSSMVSDTSCTFPSGDGIFWKHWIQTKDGQCGSPLVSTRDGFIVGIHSASNFTNTNRYFTSVPKNFMELLTNQEAQQWVSGWRLNADSVLWGGHKVFMVKPEEPFQPVKEATQL [N178R],0.0542,–,0.0051,0.0573,–,–,–,0.0672,–,–
MGESLFKLPRDYNPISSSICHLTNESDGHTTSLYGIGFGPFIITNKHLFRRNNGTLVVQSLHGVFKVKDTTTLQQHLVDGRDMIIIRMPKDFPPFPQKLKFREPQREERICLVTTNFQTKSMSSMVSDTSCTFPSGDGIFWKHWIQTKDGQCGSPLVSTRDGFIVGIHSASNFTNTNNYFTSVPKNFMELLTNQEAQQWVSGWRLNADSVLWGGHKVFMVKPEEPFQPVKEATQL [G8L],0.0492,0.0556,0.0675,0.0596,–,–,–,–,–,–
MGESLFKGPRDYNPISSSICHLTNESDGHTTSLYGIGFGPFIITNKHLFRRNNGTLVVQGLHGVFKVKDTTTLQQHLVDGRDMIIIRMPKDFPPFPQKLKFREPQREERICLVTTNFQTKSMSSMVSDTSCTFPSGDGIFWKHWIQTKDGQCGSPLVSTRDGFIVGIHSASNFTNTNNYFTSVPKNFMELLTNQEAQQWVSGWRLNADSVLWGGHKVFMVKPEEPFQPVKEATQL [S60G],0.0606,–,0.0624,0.0862,0.0509,–,–,–,–,0.051
MNESLFKGPRDYNPISSSICHLTNESDGHTTSLYGIGFGPFIITNKHLFRRNNGTLVVQSLHGVFKVKDTTTLQQHLVDGRDMIIIRMPKDFPPFPQKLKFREPQREERICLVTTNFQTKSMSSMVSDTSCTFPSGDGIFWKHWIQTKDGQCGSPLVSTRDGFIVGIHSASNFTNTNNYFTSVPKNFMELLTNQEAQQWVSGWRLNADSVLWGGHKVFMVKPEEPFQPVKEATQL [G2N],0.0339,–,–,0.0758,–,–,0.0349,–,–,–

# Same assay, conditions: temperature: 34 °C; time window: 0-4 h after rhamnose induction
Variant,area with substrate ENLYFNS,area with substrate ENLYFPS,area with substrate ENLYFSS,area with substrate ENLYFVS,area with substrate ENLYFGS,area with substrate ENLYFRS
MGESLFKGPRDYNPISSSICHLTNESDGHTTSLYGIGFGPFIITNKHLFRRNNGTLVVQSLHGVFKVKDTTTLQQHLVDGRDMIIIRMPKDFPPFPQKLKFREPQREERICLVTTNFQTKSMSSMVSDTSCTFPSGDGIFWKHWIQTKDGQCGSPLVSTRDGFIVGIHSASNFTNTNNYFTSVPKNFMELLTNQEAQQWVSGWRLNADSVLWGGHKVFMVKPEEPFQRVKEATQL [P228R],0.0537,0.071,0.0577,0.0571,–,–
MGESTFKGPRDYNPISSSICHLTNESDGHTTSLYGIGFGPFIITNKHLFRRNNGTLVVQSLHGVFKVKDTTTLQQHLVDGRDMIIIRMPKDFPPFPQKLKFREPQREERICLVTTNFQTKSMSSMVSDTSCTFPSGDGIFWKHWIQTKDGQCGSPLVSTRDGFIVGIHSASNFTNTNNYFTSVPKNFMELLTNQEAQQWVSGWRLNADSVLWGGHKVFMVKPEEPFQPVKEATQL [L5T],0.062,0.0607,0.0579,0.0354,0.065,0.0567
MGESLFKGPRDYNPISSSICHLTNESDGHTTSLYGIGFGPFIITNKHLFRRNNGTLVVQSLHGVFKVKDTTTLQQHLVDGRDMIIIRMPKDFPPFPQKLKFREPQREERICLVTTNFQTKSMSSMVSDTSCTFPSGDGIFWKHWIQTKDGQCGSPLVSTRDGFIVGIHSASNFTNTNNYFTSVPKNFMELLTNQEAQQWVSGWRLNADSVLSGGHKVFMVKPEEPFQPVKEATQL [W212S],–,0.0607,0.0887,0.0436,–,–
MGESLFKGPRDYNPISSSICHLTNESDGHTTSLYGIGFGPFIITNKHLFRRNNGTLVVQSLHGVFKVKDTTTLQQHLVDGRDMIIIRMPKDFPPFPQKLKFREPQREERICLVTTNFQTKSMSSMVSDTSCTFPSGDGIFWKHWIQTKDGQCGSPLVSTRDGFIVGIHSASNFTNTMNYFTSVPKNFMELLTNQEAQQWVSGWRLNADSVLWGGHKVFMVKPEEPFQPVKEATQL [N177M],0.0409,0.0634,0.0641,0.0626,–,–
MGESLFKGPRDYNPISSSICHLTNESDGHTTSLYGIGFGPFIITNKHLFRRNNGTLVMQSLHGVFKVKDTTTLQQHLVDGRDMIIIRMPKDFPPFPQKLKFREPQREERICLVTTNFQTKSMSSMVSDTSCTFPSGDGIFWKHWIQTKDGQCGSPLVSTRDGFIVGIHSASNFTNTNNYFTSVPKNFMELLTNQEAQQWVSGWRLNADSVLWGGHKVFMVKPEEPFQPVKEATQL [V58M],–,–,0.0668,–,0.0533,–
MGESLAKGPRDYNPISSSICHLTNESDGHTTSLYGIGFGPFIITNKHLFRRNNGTLVVQSLHGVFKVKDTTTLQQHLVDGRDMIIIRMPKDFPPFPQKLKFREPQREERICLVTTNFQTKSMSSMVSDTSCTFPSGDGIFWKHWIQTKDGQCGSPLVSTRDGFIVGIHSASNFTNTNNYFTSVPKNFMELLTNQEAQQWVSGWRLNADSVLWGGHKVFMVKPEEPFQPVKEATQL [F6A],0.0459,0.0986,–,0.0712,–,0.067
MGESLFKGPRDYNPISSSICHLTNESDGHTTSLYGIGFGPFIITNKHLFRRNNGTLVVQSLHGVFKVKDTTTLQQHLVDGRDMIIIRMPKDFPPFPQKLKFREPQREERICLVTTNFQTKSMSSMVSDTSCTFPSGDGIFWKHWIQTKDGQCGSPLVSTRDGFIVGIHSASNFTNTNRYFTSVPKNFMELLTNQEAQQWVSGWRLNADSVLWGGHKVFMVKPEEPFQPVKEATQL [N178R],0.0862,0.0679,–,–,0.0593,–
MGESLFKLPRDYNPISSSICHLTNESDGHTTSLYGIGFGPFIITNKHLFRRNNGTLVVQSLHGVFKVKDTTTLQQHLVDGRDMIIIRMPKDFPPFPQKLKFREPQREERICLVTTNFQTKSMSSMVSDTSCTFPSGDGIFWKHWIQTKDGQCGSPLVSTRDGFIVGIHSASNFTNTNNYFTSVPKNFMELLTNQEAQQWVSGWRLNADSVLWGGHKVFMVKPEEPFQPVKEATQL [G8L],–,0.0688,–,–,–,–
MGESLFKGPRDYNPISSSICHLTNESDGHTTSLYGIGFGPFIITNKHLFRRNNGTLVVQGLHGVFKVKDTTTLQQHLVDGRDMIIIRMPKDFPPFPQKLKFREPQREERICLVTTNFQTKSMSSMVSDTSCTFPSGDGIFWKHWIQTKDGQCGSPLVSTRDGFIVGIHSASNFTNTNNYFTSVPKNFMELLTNQEAQQWVSGWRLNADSVLWGGHKVFMVKPEEPFQPVKEATQL [S60G],–,0.0622,0.0669,–,–,–
